According to the supplement of paper PMC10126150:
Values marked as one replicate rest on one cluster of the flow cell; about a third of the high ones do not repeat.

Each sequence was assayed on ATP (assay: switch fluorescence ratio, 500 uM ATP over buffer (Cy3 cluster intensity, sum of 5 cycles each) (fold (ratio)); higher = stronger signal-on switching upon ATP binding; sequences stand for … in TCGTCGGCAGCGTCAGATGTGTATAAGAGACAGTTTTTTTTTTTTTTTTTTTTTTTTT…TC). Details: aptamer strand: ATP DNA aptamer (quencher-CACCTGGGGGAGTATTGCGGAGGAAGG + anchor), 100 nM annealed; ATP concentration: 500 uM; one replicate.
Summary of the method: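 Five buffer/ATP imaging cycles were run on Cy3-labelled switching-strand clusters on a modified Illumina MiSeq flow-cell, with NaOH stripping and re-annealing between cycles. In each cycle, clusters annealed to 100 nM quencher-labelled ATP aptamer were imaged in selection buffer, then after 15 min with 500 uM ATP at 22 °C. Per cluster, the fluorescence ratio is summed target-cycle over summed buffer-cycle Cy3 intensity, averaged per switch-domain sequence. Only clusters within 100-1000 RFU were kept.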
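Also: ATP exposure 15 min at 22 °C before imaging.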

Sequence | switch fluorescence ratio
ACGTGTTAAC | 1.05
ACGTGTTGCA | 1.02
ACGTGTTTTT | 1.01
ACGTTAAATC | 1.08
ACGTTAGGCT | 1.05
ACGTTCAGCG | 0.976
ACGTTCCAAC | 1.13
ACGTTGCTGG | 0.995
ACGTTGGTTG | 0.997
ACGTTGTTGG | 1
ACGTTTACTG | 1.1
ACGTTTGAA | 1.01
ACGTTTTAGA | 1.04
ACGTTTTCA | 1.04
ACTAAAACAC | 1.19
ACTAAAACTA | 1.13
ACTAAACTTA | 1.06
ACTAAGAAGA | 1.01
ACTAATAGGA | 1.01
ACTAATCC | 1.07
ACTACCATTG | 1.17
ACTACCTACT | 1.31
ACTACGTCGT | 0.996
ACTAGCTAAC | 1.3
ACTAGGAATT | 1.03
ACTAGGATAC | 1.2

Sequence | switch fluorescence ratio
ACTAGTAGGC | 0.998
ACTAGTTGTT | 1.01
ACTATCTCCG | 1.36
ACTATGCGGA | 1.09
ACTATGTATC | 0.995
ACTATGTGCT | 0.988
ACTCAAAGTT | 0.957
ACTCAAGCGC | 1.15
ACTCAGGAAT | 2.05
ACTCATCGT | 1
ACTCATGGTA | 1.08
ACTCATTTCG | 1.04
ACTCCATCCT | 1.08
ACTCCCGGCA | 1.78
ACTCCGTGTT | 2.68
ACTCCTGAAC | 2.04
ACTCCTGATT | 1.67
ACTCCTGTAG | 1.04
ACTCGAGGAG | 0.97
ACTCGCAGAA | 1.45
ACTCGCCCAA | 1.51
ACTCGCGCTA | 3.7
ACTCGCGCTC | 3.33
ACTCGCTCG | 1.04
ACTCGGGATG | 1.06
ACTCGGGTTG | 1

Sequence | switch fluorescence ratio
ACTCGTATTG | 1.02
ACTCGTGCC | 0.946
ACTCTATAC | 2.15
ACTCTATGCG | 0.99
ACTCTGTCAG | 1.25
ACTCTTCCGA | 2.25
ACTCTTCTTG | 1.03
ACTCTTGGCT | 1.04
ACTGAAACTT | 1.05
ACTGAAGAT | 1.04
ACTGAATATT | 0.991
ACTGAATTCT | 1.06
ACTGACACGG | 1.16
ACTGACAGGA | 1.16
ACTGACGCAA | 1.36
ACTGACGGGT | 1.11
ACTGAGGACT | 1.06
ACTGAGGGTC | 1
ACTGAGTGCT | 1.07
ACTGATACGG | 1.22
ACTGGATGGC | 0.993
ACTGGATGGG | 1
ACTGGCGCAT | 1.13
ACTGGGAGCA | 1.04
ACTGGGCTGA | 1.05
ACTGGGGTTG | 1.03

Sequence | switch fluorescence ratio
ACTGGTTGT | 0.996
ACTGTATGGG | 1.14
ACTGTGGGTA | 0.991
ACTGTGTAAG | 0.98
ACTGTGTATG | 1.01
ACTGTGTGAA | 1.05
ACTGTGTGCG | 1.02
ACTGTTCTGG | 1.03
ACTGTTGGTG | 1.05
ACTGTTTGAC | 0.98
ACTTAATATA | 1
ACTTAGAGTA | 1.03
ACTTAGAGTG | 1.06
ACTTAGTTTG | 1.03
ACTTATTACG | 1.06
ACTTCCTTT | 1.07
ACTTCGGACT | 1.06
ACTTCGGCGG | 1.03
ACTTCTCCGG | 2.58
ACTTCTGAA | 0.964
ACTTCTGAAT | 1
ACTTGACCGG | 1.09
ACTTGAGTTG | 0.995
ACTTGATCAA | 1.03
ACTTGCAGAA | 1.01
ACTTGCAGAT | 1.05

Sequence | switch fluorescence ratio
ACTTGCGCTG | 1.02
ACTTGGGCCG | 1.07
ACTTGGGCGC | 1.02
ACTTGGGGTC | 1.02
ACTTGGTGAC | 1.07
ACTTGTCGT | 1.03
ACTTGTGCT | 0.948
ACTTGTTACA | 1.05
ACTTTAAGTC | 1.02
ACTTTACAAT | 1.26
ACTTTAGAAA | 1.06
ACTTTTCAC | 1.1
ACTTTTTTTC | 0.977
AGAAAAATAT | 1.06
AGAAAAGATC | 1.02
AGAAACACTT | 1.03
AGAAACGTCC | 1.45
AGAAAGTAAC | 0.997
AGAACAGGGT | 1.05
AGAACCCTGA | 1.15
AGAACGCTTG | 1.02
AGAACGTTGT | 0.859
AGAAGAAGG | 1.05
AGAAGAGGGT | 0.98
AGAAGATACC | 1.07
AGAAGGCTCC | 1

Sequence | switch fluorescence ratio
AGAAGGTCCA | 1.03
AGAAGTCGCA | 0.997
AGAAGTGATC | 1.05
AGAAGTGGCA | 0.986
AGAAGTTCCC | 0.959
AGAATACCGA | 1.16
AGAATAGACC | 0.987
AGAATAGCGA | 1
AGAATGAGCT | 0.998
AGAATGCGAA | 0.975
AGAATGGCGC | 0.968
AGAATGGGAT | 1.06
AGAATGGGTA | 0.989
AGAATGTAAC | 0.965
AGAATGTACT | 1
AGAATGTCAC | 1.02
AGAATTCTAT | 1.01
AGAATTGG | 0.924
AGAATTGGGC | 0.985
AGAATTTAG | 1.03
AGACAAAGTC | 1.03
AGACAAATA | 0.961
AGACACATTC | 1.05
AGACACCCC | 1.41
AGACACTGCC | 1.18
AGACATAAAA | 1.01

Sequence | switch fluorescence ratio
AGACATGTAC | 1.15
AGACCACTTT | 0.983
AGACCCTAGC | 0.993
AGACCGGAGA | 1.02
AGACCGGGAG | 1.01
AGACCTGA | 1.08
AGACGCATTA | 2.33
AGACGCGGTA | 1.02
AGACGCGTTG | 0.956
AGACGGACAT | 1.06
AGACGGATGT | 0.992
AGACGGCCTG | 1.03
AGACGGCGCA | 1.03
AGACGGGAGC | 1.01
AGACGGGTCC | 0.99
AGACGGTCAG | 0.988
AGACGTGATT | 0.989
AGACGTGGAG | 0.986
AGACGTGTTC | 1.01
AGACTCCGTG | 0.936
AGACTCTGGA | 1.05
AGACTCTTAA | 1.01
AGACTGAGGG | 0.994
AGACTGCCAT | 1.04
AGACTGGGG | 1.11
AGACTTGCGA | 1.03

Sequence | switch fluorescence ratio
AGAGAAAAAA | 1.02
AGAGAAGGG | 0.986
AGAGACGGTT | 0.999
AGAGAGAACT | 1
AGAGATAGAT | 1.03
AGAGATAGTG | 0.96
AGAGATATCA | 1.03
AGAGATGCGT | 0.969
AGAGATTGCT | 0.936
AGAGCAACTT | 1.05
AGAGCCAAAA | 1.02
AGAGCCAGAC | 1.07
AGAGCCG | 1.01
AGAGCCGCTA | 1.06
AGAGCGGACC | 1.05
AGAGCGGCAG | 0.984
AGAGCTAGAG | 1.01
AGAGGAGAAG | 0.975
AGAGGAGTCG | 0.994
